# Assay results published in the supplement of paper PMC9588766.
# Where a name gives a salt, the structure may show the parent alone. In all, about 1,900 compounds were measured (“cell viability of compound + 1 nM pemigatinib relative to pemigatinib-only (DMSO) wells”: median about 0.95, lowest 2% from about 0.22 on). The list shows a part of the results.
# Tested on: PDC-DUC18828
# Assay: cell viability of compound + 1 nM pemigatinib relative to pemigatinib-only (DMSO) wells (fraction); PDC-DUC18828 is a patient-derived cholangiocarcinoma cell line; higher = less growth inhibition
# Settings: first compound 1 µM; pemigatinib concentration 1 nM; 72 h
# Description: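 Selleck Bioactive library screen in the patient-derived FGFR2 fusion-positive ICC cell line PDC-DUC18828 (500 cells/well). Each compound was tested at 1 uM with 1 nM pemigatinib, in triplicate, for 72 h. Viability was read by CellTiter-Glo and normalised to plate DMSO controls. Value is the paper's averaged normalised viability.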
row,SMILES,cell viability
1,C=C1C[C@@H]2[C@H](CC[C@]3(C)C(=O)CC[C@@H]23)[C@@]2(C)C=CC(=O)C=C12 [Exemestane] + CCN1C(=O)N(c2c(F)c(OC)cc(OC)c2F)Cc2cnc3[nH]c(CN4CCOCC4)cc3c21 [pemigatinib],0.943
2,COc1cc(OC)c(OC)cc1C=O [Asaraldehyde] + CCN1C(=O)N(c2c(F)c(OC)cc(OC)c2F)Cc2cnc3[nH]c(CN4CCOCC4)cc3c21 [pemigatinib],0.933
3,OC(c1ccccc1)(c1ccccc1)C1CCNCC1 [Azacyclonol] + CCN1C(=O)N(c2c(F)c(OC)cc(OC)c2F)Cc2cnc3[nH]c(CN4CCOCC4)cc3c21 [pemigatinib],0.809
4,CCC1(C)CC(=O)NC(=O)C1 [Bemegride] + CCN1C(=O)N(c2c(F)c(OC)cc(OC)c2F)Cc2cnc3[nH]c(CN4CCOCC4)cc3c21 [pemigatinib],1.02
5,C/C(O)=C(\C#N)C(=O)Nc1cc(Br)ccc1Br + CCN1C(=O)N(c2c(F)c(OC)cc(OC)c2F)Cc2cnc3[nH]c(CN4CCOCC4)cc3c21 [pemigatinib],0.863
6,CCN(Cc1ccc(Cl)nc1)/C(=C/[N+](=O)[O-])NC [Nitenpyram] + CCN1C(=O)N(c2c(F)c(OC)cc(OC)c2F)Cc2cnc3[nH]c(CN4CCOCC4)cc3c21 [pemigatinib],0.968
7,Cc1ccccc1-n1c(Cn2ncc3c(N)ncnc32)nc2cccc(C)c2c1=O + CCN1C(=O)N(c2c(F)c(OC)cc(OC)c2F)Cc2cnc3[nH]c(CN4CCOCC4)cc3c21 [pemigatinib],0.912
8,Cn1c(COP(=O)(NCCBr)NCCBr)cnc1[N+](=O)[O-] + CCN1C(=O)N(c2c(F)c(OC)cc(OC)c2F)Cc2cnc3[nH]c(CN4CCOCC4)cc3c21 [pemigatinib],0.96
9,Cc1sc2c(c1C)C(c1ccc(Cl)cc1)=N[C@@H](CC(=O)OC(C)(C)C)c1nnc(C)n1-2 + CCN1C(=O)N(c2c(F)c(OC)cc(OC)c2F)Cc2cnc3[nH]c(CN4CCOCC4)cc3c21 [pemigatinib],0.688
10,CCc1cc2c(s1)-n1c(C)nnc1CN=C2c1ccccc1Cl [Etizolam] + CCN1C(=O)N(c2c(F)c(OC)cc(OC)c2F)Cc2cnc3[nH]c(CN4CCOCC4)cc3c21 [pemigatinib],0.969
11,O=C(O)c1nn(Cc2ccc(Cl)cc2Cl)c2ccccc12 [Lonidamine] + CCN1C(=O)N(c2c(F)c(OC)cc(OC)c2F)Cc2cnc3[nH]c(CN4CCOCC4)cc3c21 [pemigatinib],0.964
12,Cc1cc(C(C#N)c2ccc(Cl)cc2)c(Cl)cc1NC(=O)c1cc(I)cc(I)c1O (configuration not stated) [Closantel] + CCN1C(=O)N(c2c(F)c(OC)cc(OC)c2F)Cc2cnc3[nH]c(CN4CCOCC4)cc3c21 [pemigatinib],0.988
13,Cc1cc(C(C#N)c2ccc(Cl)cc2)c(Cl)cc1NC(=O)c1cc(I)cc(I)c1O (configuration not stated) [Closantel Sodium] + CCN1C(=O)N(c2c(F)c(OC)cc(OC)c2F)Cc2cnc3[nH]c(CN4CCOCC4)cc3c21 [pemigatinib],0.945
14,CC(C)(C)c1cc(C=C(C#N)C#N)cc(C(C)(C)C)c1O [Tyrphostin 9] + CCN1C(=O)N(c2c(F)c(OC)cc(OC)c2F)Cc2cnc3[nH]c(CN4CCOCC4)cc3c21 [pemigatinib],0.357
15,CCOC(=O)c1cncn1[C@H](C)c1ccccc1 [Etomidate] + CCN1C(=O)N(c2c(F)c(OC)cc(OC)c2F)Cc2cnc3[nH]c(CN4CCOCC4)cc3c21 [pemigatinib],0.988
16,CC(O)(CS(=O)(=O)c1ccc(F)cc1)C(=O)Nc1ccc(C#N)c(C(F)(F)F)c1 (configuration not stated) [Bicalutamide] + CCN1C(=O)N(c2c(F)c(OC)cc(OC)c2F)Cc2cnc3[nH]c(CN4CCOCC4)cc3c21 [pemigatinib],0.96
17,O=c1cccc2n1C[C@@H]1CNC[C@H]2C1 [Cytisine] + CCN1C(=O)N(c2c(F)c(OC)cc(OC)c2F)Cc2cnc3[nH]c(CN4CCOCC4)cc3c21 [pemigatinib],0.966
18,CC(C)OC(=O)[C@H](C)N[P@](=O)(CO[C@H](C)Cn1cnc2c(N)ncnc21)Oc1ccccc1 [Tenofovir Alafenamide (GS-7340)] + CCN1C(=O)N(c2c(F)c(OC)cc(OC)c2F)Cc2cnc3[nH]c(CN4CCOCC4)cc3c21 [pemigatinib],0.864
19,O=[N+]([O-])c1ncc[nH]1 [Azomycin] + CCN1C(=O)N(c2c(F)c(OC)cc(OC)c2F)Cc2cnc3[nH]c(CN4CCOCC4)cc3c21 [pemigatinib],0.97

row,SMILES,cell viability
1,CC[C@H](C)[C@@H]([C@@H](CC(=O)N1CCC[C@H]1[C@H](OC)[C@@H](C)C(=O)N[C@H](C)[C@@H](O)c1ccccc1)OC)N(C)C(=O)[C@@H](NC(=O)[C@@H](NC)C(C)C)C(C)C [Monomethyl auristatin E (MMAE)] + CCN1C(=O)N(c2c(F)c(OC)cc(OC)c2F)Cc2cnc3[nH]c(CN4CCOCC4)cc3c21 [pemigatinib],0.256
2,c1ccc([C@@H]2C[C@H]2NC2CCNCC2)cc1 + CCN1C(=O)N(c2c(F)c(OC)cc(OC)c2F)Cc2cnc3[nH]c(CN4CCOCC4)cc3c21 [pemigatinib],0.961
3,COc1ccc(CC2NCCc3cc(OC)c(OC)cc32)cc1OC (configuration not stated) [Tetrahydropapaverine HCl] + CCN1C(=O)N(c2c(F)c(OC)cc(OC)c2F)Cc2cnc3[nH]c(CN4CCOCC4)cc3c21 [pemigatinib],0.927
4,C[C@]12CC[C@H](O)CC1=CC[C@@H]1[C@@H]2CC[C@]2(C)C(=O)CC[C@@H]12 [Dehydroepiandrosterone (DHEA)] + CCN1C(=O)N(c2c(F)c(OC)cc(OC)c2F)Cc2cnc3[nH]c(CN4CCOCC4)cc3c21 [pemigatinib],0.962
5,CC(=O)O[C@H]1C[C@@H]2CC[C@@H]3[C@H](CC[C@@]4(C)[C@H]3C[C@H]([N+]3(C)CCCCC3)[C@@H]4OC(C)=O)[C@@]2(C)C[C@@H]1[N+]1(C)CCCCC1 [Pancuronium dibromide] + CCN1C(=O)N(c2c(F)c(OC)cc(OC)c2F)Cc2cnc3[nH]c(CN4CCOCC4)cc3c21 [pemigatinib],0.978
6,O=C(NCC1CCOCC1)c1cnc(Nc2ccc(Cl)cc2Cl)nc1C(F)(F)F + CCN1C(=O)N(c2c(F)c(OC)cc(OC)c2F)Cc2cnc3[nH]c(CN4CCOCC4)cc3c21 [pemigatinib],0.903
7,CN1CCCCC1Cn1cc(C(=O)c2cc([N+](=O)[O-])ccc2I)c2ccccc21 (configuration not stated) + CCN1C(=O)N(c2c(F)c(OC)cc(OC)c2F)Cc2cnc3[nH]c(CN4CCOCC4)cc3c21 [pemigatinib],0.955
8,O=c1ccc2cc(O[C@@H]3O[C@H](CO)[C@@H](O)[C@H](O)[C@H]3O)c(O)cc2o1 [Esculin] + CCN1C(=O)N(c2c(F)c(OC)cc(OC)c2F)Cc2cnc3[nH]c(CN4CCOCC4)cc3c21 [pemigatinib],0.996
9,O=C(O)C(=O)c1cn(Cc2ccccc2)c2ccc(-c3ccc(OC(F)(F)F)cc3)cc12 [Tiplaxtinin (PAI-039)] + CCN1C(=O)N(c2c(F)c(OC)cc(OC)c2F)Cc2cnc3[nH]c(CN4CCOCC4)cc3c21 [pemigatinib],0.936
10,c1ccc2c(c1)Nc1ccccc1S2 [Phenothiazine] + CCN1C(=O)N(c2c(F)c(OC)cc(OC)c2F)Cc2cnc3[nH]c(CN4CCOCC4)cc3c21 [pemigatinib],0.953
11,Cc1cccc(Cc2c[nH]cn2)c1C [Detomidine HCl] + CCN1C(=O)N(c2c(F)c(OC)cc(OC)c2F)Cc2cnc3[nH]c(CN4CCOCC4)cc3c21 [pemigatinib],0.956
12,Cc1cccc(C)c1NC(=O)CN1CCCC1=O [Nefiracetam] + CCN1C(=O)N(c2c(F)c(OC)cc(OC)c2F)Cc2cnc3[nH]c(CN4CCOCC4)cc3c21 [pemigatinib],0.98
13,Cn1cc(C2=C(c3cn(C4CCN(Cc5ccccn5)CC4)c4ccccc34)C(=O)NC2=O)c2ccccc21 + CCN1C(=O)N(c2c(F)c(OC)cc(OC)c2F)Cc2cnc3[nH]c(CN4CCOCC4)cc3c21 [pemigatinib],1.05
14,C=CCN1CC[C@]23c4c5ccc(O)c4O[C@H]2C(=O)CC[C@@]3(O)[C@H]1C5 [Naloxone HCl] + CCN1C(=O)N(c2c(F)c(OC)cc(OC)c2F)Cc2cnc3[nH]c(CN4CCOCC4)cc3c21 [pemigatinib],0.91
15,C[C@@H]1CC[C@@]2(OC1)O[C@H]1C[C@H]3[C@@H]4CC=C5C[C@@H](O[C@@H]6O[C@H](CO)[C@@H](O[C@@H]7O[C@@H](C)[C@H](O)[C@@H](O)[C@H]7O)[C@H](O)[C@H]6O[C@@H]6O[C@@H](C)[C@H](O)[C@@H](O)[C@H]6O)CC[C@]5(C)[C@H]4CC[C@]3(C)[C@H]1[C@@H]2C [Dioscin] + CCN1C(=O)N(c2c(F)c(OC)cc(OC)c2F)Cc2cnc3[nH]c(CN4CCOCC4)cc3c21 [pemigatinib],0.735
16,Cc1sc2c(c1C)C(c1ccc(Cl)cc1)=N[C@@H](CC(N)=O)c1nnc(C)n1-2 + CCN1C(=O)N(c2c(F)c(OC)cc(OC)c2F)Cc2cnc3[nH]c(CN4CCOCC4)cc3c21 [pemigatinib],0.742
17,[O-][n+]1ccccc1[S-].[O-][n+]1ccccc1[S-].[Zn+2] [Zinc Pyrithione] + CCN1C(=O)N(c2c(F)c(OC)cc(OC)c2F)Cc2cnc3[nH]c(CN4CCOCC4)cc3c21 [pemigatinib],0.104
18,N[C@@H]1C[C@H]1c1ccccc1 [Tranylcypromine (2-PCPA) HCl] + CCN1C(=O)N(c2c(F)c(OC)cc(OC)c2F)Cc2cnc3[nH]c(CN4CCOCC4)cc3c21 [pemigatinib],0.924
